{
  "source": "PubChem BioAssay AID686970",
  "about": "(National Center for Advancing Translational Sciences (NCATS), 2013)",
  "note": "In all, about 360,000 compounds went through this assay and about 6,000 (1.7%) were called active. Inconclusive results, whose numbers are uncertain, are shown with a selection of clear calls. Calls follow the shape of the dose curve; as a rule, active = well fitted cell-killing curve with a large enough effect; inconclusive = small, poorly fitted or top-dose-only effect, or effect the other way; inactive = flat fitted curve, though single readings scatter. Potencies of inconclusive entries are left out as doubtful fits. Potency is read from the fitted curve at half-maximal effect; tags tell the direction and shape of the fitted curve.",
  "data": [
    {"experiment": "qHTS for induction of synthetic lethality in tumor cells producing 2HG: qHTS for the HT-1080-NT fibrosarcoma cell line;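 also: NT is the 2HG producing partner of a matched IDH1 knockdown line; nearly all actives have a fitted effect of over 55% in size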;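 as to activity, negative = less viability: 0% = DMSO-treated cells and -100% = media-only wells without cells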", "details": "HT-1080-NT fibrosarcoma viability, CellTiter-Glo ATP luminescence, 48 h; activity, negative = less viability: at 46.1 µM (top of the series) unless noted", "outline": "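Viability by CellTiter-Glo luminescence after 48 h compound exposure at 37C of HT-1080-NT cells (750/well, RPMI, 5% FBS). % activity scaled between DMSO wells and medium-only wells, then curve-fitted and categorized by curve class.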", "values": [
      {"smiles": "CN(c1ccccc1)S(=O)(=O)c1cccc(NC(=O)c2cccc(C#N)c2)c1", "activity, negative = less viability": "inactive: -11%"},
      {"smiles": "COc1ccc(CN2C(=O)CN(C3CCCCCC3)C(=O)C2c2ccc(F)cc2)cc1", "note": "(configuration not stated)", "activity, negative = less viability": "inactive: 11.9%"},
      {"smiles": "COc1ccc(NC(=O)Cc2cccc(F)c2)cc1S(=O)(=O)Nc1ccccc1Cl", "Potency": "inconclusive [cytotoxic, single point]"},
      {"smiles": "O=C(NC(=S)NC(c1ccccc1)c1ccncc1)c1ccccc1", "note": "(configuration not stated)", "activity, negative = less viability": "inactive: -24.6%"},
      {"smiles": "CN(C)c1ccc(-c2ccnc3c2CC(C)(C(=O)NCc2ccc(F)c(F)c2)O3)cc1", "note": "(configuration not stated)", "Potency": "inconclusive [cytotoxic, single point]"},
      {"smiles": "O=C(CSc1nc2ccccc2n1S(=O)(=O)c1ccccc1)N1CCCCC1", "Potency": "inconclusive [rising, partial curve]"},
      {"smiles": "COc1ccc(CC(C)N2CCN(c3ccccc3)CC2)cc1OC", "note": "(configuration not stated)", "Potency": "inconclusive [cytotoxic, partial curve, poor fit]"},
      {"smiles": "Cc1ccc(C(=O)N2C(=S)C(c3ccc(F)cc3)=NC23CCN(C)CC3)cc1", "Potency": "inconclusive [cytotoxic, single point]"},
      {"smiles": "CC(=O)Nc1cccc(-c2ccnc3c2CC(C(=O)NCc2ccncc2)O3)c1", "note": "(configuration not stated)", "activity, negative = less viability": "inactive: -6.7%"},
      {"smiles": "O=C(Nc1cccc(C(F)(F)F)c1)C(Sc1n[nH]c(=O)[nH]c1=O)c1ccccc1", "note": "(configuration not stated)", "activity, negative = less viability": "inactive: -17.2%"},
      {"smiles": "O=C1C=C(c2ccc3[nH]ccc3c2)C[C@@H](c2ccc(Cl)cc2)C1", "Potency": "inconclusive [cytotoxic, single point]"},
      {"smiles": "Nc1nc(-c2ccccc2)cc(N2CCCCC2)n1", "Potency": "inconclusive [cytotoxic, single point]"},
      {"smiles": "C(=C\\c1ccccc1)/CSc1nnc(-c2ccccn2)n1Cc1ccco1", "Potency": "active: 5.8 µM"},
      {"smiles": "CCCCCCCCCCCCCCCC[n+]1cccc(C(=O)N(CC)CC)c1", "Potency": "inconclusive [cytotoxic, single point]"},
      {"smiles": "O=C(COc1ccccc1)NCC(=O)N/N=C/c1ccc(O)cc1O", "Potency": "inconclusive [cytotoxic, single point]"},
      {"smiles": "COCCn1c(=S)[nH]c2cc(C(=O)N3CCN(Cc4ccc5c(c4)OCO5)CC3)ccc2c1=O", "activity, negative = less viability": "inconclusive: -30.3% [cytotoxic]"},
      {"smiles": "COc1cc(CC(=O)Oc2ccc3c(c2)OCO3)cc(OC)c1OC", "activity, negative = less viability": "inactive: 1.42%"},
      {"smiles": "COc1ccc(N=C2C(=O)Nc3ccccc32)cc1", "Potency": "inconclusive [cytotoxic, partial curve]"},
      {"smiles": "COc1ccc(C(=O)C2CCN(CC(=O)Nc3ccc(C)cc3)CC2)cc1", "Potency": "inconclusive [cytotoxic, single point]"},
      {"smiles": "Nc1cc(Cl)cc2c1-c1ccc(Cl)cc1C2", "activity, negative = less viability": "inactive: -12.9%"},
      {"smiles": "CCOc1ccc(NC(=S)N/N=C(\\C)Cc2ccc(OC)cc2)cc1", "Potency": "inconclusive [rising, full curve]"},
      {"smiles": "COc1cc(NC(=O)N2CCNC2=O)cc(C(=O)Nc2cccc(C(F)(F)F)c2)c1", "Potency": "active: 4.61 µM"},
      {"smiles": "COc1ccc(C(=O)CCN2CCN(c3ccc(OC)cc3)CC2)cc1", "Potency": "inconclusive [cytotoxic, single point]"},
      {"smiles": "COc1ccc(CC(N)c2csc(Nc3nccc(C(F)(F)F)n3)n2)cc1", "note": "(configuration not stated)", "Potency": "inconclusive [cytotoxic, single point]"},
      {"smiles": "S=C(N/N=C/c1cccs1)NC1CC2CCC1C2", "note": "(configuration not stated)", "Potency": "inconclusive [cytotoxic, single point]"},
      {"smiles": "COc1ccc(Cn2cc3c(-c4ccc(F)cc4)nnc-3c3cc(OC)c(OC)cc32)cc1", "Potency": "inconclusive [cytotoxic, single point]"},
      {"smiles": "FC(F)(F)c1cc(Sc2ccccc2)nc(-c2ccccn2)n1", "Potency": "active: 12.6 µM"},
      {"smiles": "C=CCOc1cccc(C(=O)/C=C2/C(=O)Nc3ccccc32)c1", "Potency": "active: 18.4 µM"},
      {"smiles": "CCN(Cc1ccccc1)CC(O)COC(c1ccc(OC)cc1)c1ccc(OC)cc1", "note": "(configuration not stated)", "Potency": "inconclusive [cytotoxic, single point]"},
      {"smiles": "O=C(CSc1nnc(CNC(=O)c2ccccc2)o1)NCC1CCCO1", "note": "(configuration not stated)", "activity, negative = less viability": "inactive: 0.0048%"},
      {"smiles": "CCOc1ccc(-c2cc(C(=O)NCc3cc(C(F)(F)F)cc(C(F)(F)F)c3)[nH]n2)c(C)c1", "Potency": "inconclusive [cytotoxic, full curve, poor fit]"},
      {"smiles": "C=C(c1ccc2nc(NC(=O)OC)[nH]c2c1)c1cccs1", "Potency": "active: 1.03 µM"},
      {"smiles": "COc1ccc(CN(C(=S)Nc2ccccc2)C2CC(=O)N(c3ccc(Cl)cc3)C2=O)cc1", "note": "(configuration not stated)", "Potency": "active: 11.6 µM"},
      {"smiles": "O=C(Nc1ccc2c(c1)OCCO2)C(c1cc2ccccc2o1)N1CCN(C/C=C/c2ccccc2)CC1", "note": "(configuration not stated)", "Potency": "inconclusive [cytotoxic, single point]"},
      {"smiles": "COCCCN1CN(S(=O)(=O)c2cccs2)c2nc3ccccc3nc21", "activity, negative = less viability": "inactive: 3.21%"},
      {"smiles": "COc1ccc(NC(=O)c2cc(C)n(Cc3cccs3)c2C)cc1", "Potency": "inconclusive [cytotoxic, single point]"},
      {"smiles": "Cc1ccccc1C1CC(c2ccccc2)Nc2ncnn21", "note": "(configuration not stated)", "activity, negative = less viability": "inconclusive: 30.6%"},
      {"smiles": "CCOC(=O)/C(=C/c1c2ccccc2cc2ccccc12)NC(=O)c1ccccc1", "Potency": "inconclusive [cytotoxic, single point]"},
      {"smiles": "Cc1ccc(/C=N/N2CCN(C3c4ccccc4-c4ccccc43)CC2)o1", "activity, negative = less viability": "inactive: 5.06%"},
      {"smiles": "Cn1nc(-c2ccc(C(=O)Nc3cccc(Cl)c3)cc2)c2ccccc2c1=O", "Potency": "inconclusive [cytotoxic, partial curve]"},
      {"smiles": "Cn1ccc2c(-c3ccc(C(=O)O)cc3)cc3c(c21)C1CCC3O1", "note": "(configuration not stated)", "activity, negative = less viability": "inactive: 12.3%"},
      {"smiles": "Cc1ccc(OCc2nnc(SCC(=O)NCc3ccco3)n2C)cc1", "activity, negative = less viability": "inactive: 0.475%"},
      {"smiles": "CSc1nsc(NC(=O)Nc2ccccc2)n1", "Potency": "inconclusive [cytotoxic, single point]"},
      {"smiles": "COc1ccc(C2(O)CCN(CCCCOc3ccccc3)CC2)cc1", "Potency": "inconclusive [cytotoxic, single point]"},
      {"smiles": "CC(C)=CCC1=C(OCC(=O)O)C(=O)c2ccccc2C1=O", "Potency": "inconclusive [cytotoxic, single point]"},
      {"smiles": "O=C(c1ccc2ncsc2c1)N1CCN(c2nc3ccccc3s2)CC1", "Potency": "inconclusive [cytotoxic, single point]"},
      {"smiles": "O=C(Nc1nc2ccc(F)cc2s1)c1ccc([N+](=O)[O-])o1", "Potency": "inconclusive [cytotoxic, partial curve]"},
      {"smiles": "Cc1ccn2c(CNCC3OCCc4ccccc43)c(C(=O)N3CCCCCC3)nc2c1", "note": "(configuration not stated)", "activity, negative = less viability": "inactive: -6.13%"},
      {"smiles": "O=c1c(F)cn(C2CCCO2)c(=O)n1Cc1ccc(Cl)cc1", "note": "(configuration not stated)", "activity, negative = less viability": "inactive: -0.404%"},
      {"smiles": "CN(CC1CCCO1)S(=O)(=O)c1ccc(C(=O)Nc2ccccc2F)cc1", "note": "(configuration not stated)", "activity, negative = less viability": "inactive: 1.65%"},
      {"smiles": "Cc1ccc(S(=O)(=O)c2ccc([N+](=O)[O-])cn2)cc1", "Potency": "active: 2.59 µM"},
      {"smiles": "COc1cccc(-c2cc(C(=O)N3C(C)CCCC3C)no2)c1", "note": "(configuration not stated)", "Potency": "inconclusive [cytotoxic, partial curve]"},
      {"smiles": "O=C(O)C1CCCN1c1ncccc1[N+](=O)[O-]", "note": "(configuration not stated)", "activity, negative = less viability": "inconclusive: 31.4%"},
      {"smiles": "CC1=CC2=NC(=O)/C(=C\\c3ccc(-c4cccc(Cl)c4)o3)C(=N)N2O1", "Potency": "active: 10.3 µM"},
      {"smiles": "CC(C)(C)c1nc2ccccc2c(=O)n1N1C(=O)c2ccccc2C1=O", "Potency": "inconclusive [cytotoxic, single point]"},
      {"smiles": "Cc1nn(Cc2ccc(Cl)c(Cl)c2)c(C)c1NC(=O)c1cc(CC(C)C)on1", "Potency": "inconclusive [cytotoxic, partial curve]"},
      {"smiles": "Cc1cc(C)n(Cc2ccc(C(=O)Nc3cccc(Br)c3)o2)n1", "activity, negative = less viability": "inactive: 3.92%"},
      {"smiles": "O=S(=O)(Nc1nccs1)c1ccc(NS(=O)(=O)c2c(F)cc(F)c(Cl)c2F)cc1", "activity, negative = less viability": "inactive: 0.532%"},
      {"smiles": "O=C(NCc1cccc(C(F)(F)F)c1)c1[nH]c(C(F)(F)F)nc1-c1ccccc1", "Potency": "inconclusive [cytotoxic, single point]"},
      {"smiles": "O=C(O)/C=C/C(=O)Nc1ccc(O)cc1", "activity, negative = less viability": "inactive: 0%"},
      {"smiles": "CCc1nc(N2CCN(C(=O)c3ccccc3)CC2)c(C#N)c2c1COC(C)(C)C2", "activity, negative = less viability": "inactive: -2.86%"},
      {"smiles": "Cc1cc(C)c(S(=O)(=O)c2ccc(Cl)cc2C)c(Cl)n1", "activity, negative = less viability": "inactive: -13.4%"},
      {"smiles": "COc1cc(C(=O)NC(=S)NNC(=O)c2ccc3c(c2)OCO3)cc(OC)c1OC", "Potency": "inconclusive [cytotoxic, single point]"},
      {"smiles": "CN(Cc1cccc(F)c1)C(=O)C1CC(=O)N(Cc2ccco2)C1", "note": "(configuration not stated)", "activity, negative = less viability": "inactive: -0.0426%"},
      {"smiles": "CC(C)CC(=O)NC(=S)NNC(=O)c1ccc(NC(=O)C2CCCCC2)cc1", "Potency": "inconclusive [cytotoxic, partial curve, poor fit]"},
      {"smiles": "Nc1nc(=S)c2ncn(C3CCCCC3)c2[nH]1", "Potency": "inconclusive [cytotoxic, full curve, poor fit]"},
      {"smiles": "Nc1ccc(CC(N)c2csc(Nc3nncc4ccccc34)n2)cc1", "note": "(configuration not stated)", "Potency": "inconclusive [cytotoxic, single point]"},
      {"smiles": "CC[C@H](C)[C@@H]1NC(=O)[C@H]([C@@H](C)CC)NC(=O)[C@@H](CC(C)C)NC(=O)[C@H](Cc2ccccc2)NC(=O)[C@H](Cc2ccccc2)NC(=O)[C@@H]2CCCN2C(=O)[C@@H]2CCCN2C(=O)[C@H](C(C)C)NC(=O)[C@H](CC(C)C)NC1=O", "Potency": "inconclusive [cytotoxic, single point]"},
      {"smiles": "CCOCCOC(=O)c1ccc(-n2cncn2)nc1", "activity, negative = less viability": "inactive: -3.98%"},
      {"smiles": "CC1CCN(S(=O)(=O)c2ccc(NC(=O)Cn3nnc(-c4ccccc4)n3)cc2)CC1", "Potency": "inconclusive [cytotoxic, single point]"},
      {"smiles": "COc1ccc(CN2C(=O)C(Cc3ccccc3)Nc3ncnc(N4CCCCC4)c32)cc1", "note": "(configuration not stated)", "Potency": "inconclusive [rising, single point]"},
      {"smiles": "Cn1c(=O)oc2cc(S(=O)(=O)CCC(=O)N3CCN(c4ccccc4F)CC3)ccc21", "activity, negative = less viability": "inactive: 1.28%"}
    ]}
  ]
}
